# Inconclusive results are not listed. A number of entries come with more than one value. This list holds those alone. An entry can have further records. Results that share an entry are repeated measurements across runs, samples, wells, individuals or studies. *1 amine or outer side, *2 acyl side, *3 side chain or, on linkers, in order; H or OH if unused. Where a SMILES comes first, the peptide text is derived from it. Bridges are numbered along the chain shown (N, C = ends). Roman numbers before positions name the chains, in order. [ ]: non-standard residue; d: D form. Actinocin(1to9) = Cc1c2oc3c(C)ccc(C(=O)[*:2])c3nc-2c(C(=O)[*:1])c(N)c1=O; NMeV = CN[CH](C(=O)O)C(C)C; Aze = O=C(O)[CH]1CCN1; Sar = CNCC(=O)O
# Test system: BDF1 mice, colon carcinoma 38 sc, T/C %
# Assay: NCI In Vivo Anticancer Drug Screen. Data for tumor model Colon Carcinoma 38 (subcutaneous) in B6D2F1 (BDF1) mice
# Details: endpoint: median tumor weight (est.), higher = larger tumour
# Protocol: The antitumor activity of compounds was measured in mice bearing transplantable tumors. Survival or tumor size were measured and the results are expressed as the measurement made in the treated group (T) divided by the measurement made in the vehicle treated control group (C). The tumor model used in this assay is Colon Carcinoma 38 (subcutaneous) in B6D2F1 (BDF1) mice
# [1] = dose: 225.0 mg/kg/injection, schedule: Q07DX002 (ip), vehicle: saline with Tween-80
# [2] = dose: 900.0 mg/kg/injection, schedule: Q07DX002 (ip), vehicle: saline with Tween-80
# [3] = dose: 25.0 mg/kg/injection, schedule: Q07DX002 (ip), vehicle: saline with Tween-80
# [4] = dose: 100.0 mg/kg/injection, schedule: Q07DX002 (ip), vehicle: saline with Tween-80
# [5] = dose: 200.0 mg/kg/injection, schedule: Q07DX002 (ip), vehicle: saline with Tween-80
# [6] = dose: 400.0 mg/kg/injection, schedule: Q07DX002 (ip), vehicle: saline with Tween-80
# [7] = dose: 25.0 mg/kg/injection, schedule: Q07DX002 (ip), vehicle: saline
# [8] = dose: 50.0 mg/kg/injection, schedule: Q07DX002 (ip), vehicle: saline with Tween-80
# [9] = dose: 12.5 mg/kg/injection, schedule: Q07DX002 (ip), vehicle: saline
# [10] = dose: 50.0 mg/kg/injection, schedule: Q07DX002 (ip), vehicle: saline
# [11] = dose: 100.0 mg/kg/injection, schedule: Q07DX002 (ip), vehicle: saline
# [12] = dose: 12.5 mg/kg/injection, schedule: Q07DX002 (ip), vehicle: saline with Tween-80
# [13] = dose: 200.0 mg/kg/injection, schedule: Q07DX002 (ip), vehicle: Klucel (hydroxypropylcellulose) (HPC)
smiles,measurement,setting,value
CCC(=O)O[C@H]1CC[C@H]2[C@@H]3CCC4=CC(=O)CC[C@]4(C)[C@H]3CC[C@]12C,T/C,"dose: 80.0 mg/kg/injection, schedule: Q07DX002 (ip), vehicle: Klucel (hydroxypropylcellulose) (HPC)","68 % of control, 87 % of control, 103 % of control"
same,T/C,"dose: 160.0 mg/kg/injection, schedule: Q07DX002 (ip), vehicle: Klucel (hydroxypropylcellulose) (HPC)",117 % of control and 159 % of control
same,T/C,"dose: 320.0 mg/kg/injection, schedule: Q07DX002 (ip), vehicle: Klucel (hydroxypropylcellulose) (HPC)","80 % of control, 115 % of control, 121 % of control"
ClC1C(Cl)C(Cl)C(Cl)C(Cl)C1Cl (stereo not drawn),T/C,[1],47 % of control and 94 % of control
same,T/C,[2],75 % of control and 109 % of control
CO[C@H]1C[C@](C)(O)Cc2cc3c(c(O)c21)C(=O)c1c(O)cc2c(c1C3=O)O[C@@H]1O[C@@]2(C)[C@H](O)[C@@H](N(C)C)[C@@H]1O,T/C,"dose: 6.25 mg/kg/injection, schedule: Q07DX002 (ip), vehicle: other",44 % of control and 73 % of control
COc1ccc(C(=O)c2no[n+]([O-])c2C(=O)c2ccc(OC)cc2)cc1,T/C,[3],56 % of control and 84 % of control
same,T/C,[4],52 % of control and 101 % of control
same,T/C,[5],39 % of control and 104 % of control
same,T/C,[6],61 % of control and 121 % of control
Nc1nc(F)nc2c1ncn2C1OC(COP(=O)(O)O)C(O)C1O (stereo not drawn),T/C,[7],60 % of control and 103 % of control
Nc1nnc[se]1,T/C,[8],55 % of control and 84 % of control
same,T/C,[4],45 % of control and 86 % of control
Nc1ccc(S(N)(=O)=O)cc1,T/C,[1],43 % of control and 110 % of control
same,T/C,"dose: 450.0 mg/kg/injection, schedule: Q07DX002 (ip), vehicle: saline with Tween-80",59 % of control and 95 % of control
same,T/C,[2],62 % of control and 93 % of control
COc1cccc2c1C(=O)c1c(O)c3c(c(O)c1C2=O)CC(O)(C(=O)CO)CC3OC1CC(N)C(O)C(C)O1 (stereo not drawn),T/C,[9],66 % of control and 121 % of control
same,T/C,[10],51 % of control and 124 % of control
same,T/C,[11],16 % of control and 53 % of control
CCCCCCCCSC1=C(Cl)C(=O)C(OC)=C(OC)C1=O,T/C,"dose: 3.12 mg/kg/injection, schedule: Q07DX002 (ip), vehicle: saline with Tween-80",65 % of control and 100 % of control
O=C(O[Si](Cc1ccccc1)(Cc1ccccc1)Cc1ccccc1)N(CCCl)CCCl,T/C,[12],40 % of control and 187 % of control
same,T/C,[8],59 % of control and 99 % of control
CCCCCCCCCCCCCCCCCCCCCC(=O)Nc1ccn(C2OC(CO)C(O)C2O)c(=O)n1 (stereo not drawn),T/C,[10],48 % of control and 76 % of control
O=C1CN(Cc2ccc3c(c2)OCO3)NO1,T/C,[8],"81 % of control, 108 % of control, 113 % of control"
same,T/C,[4],"66 % of control, 107 % of control, 109 % of control"
same,T/C,[5],"42 % of control, 57 % of control, 107 % of control"
same,T/C,[6],54 % of control and 112 % of control
CCCCNc1ccc2nnc(C)n2n1,T/C,"dose: 50.0 mg/kg/injection, schedule: Q07DX002 (ip), vehicle: other",78 % of control and 112 % of control
same,T/C,"dose: 100.0 mg/kg/injection, schedule: Q07DX002 (ip), vehicle: other",82 % of control and 154 % of control
CN1CCN(Cc2nc3cccc4c3c([n+]2[O-])-c2ccccc2-4)CC1,T/C,[3],"44 % of control, 100 % of control, 185 % of control"
same,T/C,[8],"68 % of control, 69 % of control, 150 % of control"
same,T/C,[4],"39 % of control, 84 % of control, 85 % of control"
CC(=O)OC1C2OC3C=C(C)CCC3(CO)C(C)(C1OC(C)=O)C21CO1 (stereo not drawn),T/C,"dose: 8.0 mg/kg/injection, schedule: Q07DX003 (ip), vehicle: saline",38 % of control and 64 % of control
NS(=O)(=O)OCCCCCCCOS(N)(=O)=O,T/C,[8],52 % of control and 87 % of control
same,T/C,[4],27 % of control and 62 % of control
CCCCOCN(COCCCC)C(C)Cc1ccccc1 (stereo not drawn),T/C,[4],28 % of control and 113 % of control
same,T/C,[5],64 % of control and 104 % of control
C[CH2][Ge]([CH2]C)[CH2]C.C[CH2][Ge]([CH2]C)[CH2]C.C[CH2][Ge]([CH2]C)[O][Ge]([CH2]C)[CH2]C,T/C,[6],70 % of control and 96 % of control
"Cc1c2oc3c(C)ccc(C(=O)NC4C(=O)NC(C(C)C)C(=O)N5CCCC5C(=O)N(C)CC(=O)N(C)C(C(C)C)C(=O)OC4C)c3nc-2c(C(=O)NC2C(=O)NC(C(C)C)C(=O)N3CCC3C(=O)N(C)CC(=O)N(C)C(C(C)C)C(=O)OC2C)c(N)c1=O (stereo not drawn) (I: TV[Aze][Sar][NMeV] / II: TVP[Sar][NMeV]; ester I:1-I:C, II:1-II:C; linker I:N-II:N via Actinocin(1to9); configuration not given here)",T/C,"dose: 75.0 micrograms/kg/injection, schedule: Q07DX002 (ip), vehicle: saline + alcohol","81 % of control, 97 % of control, 112 % of control"
same,T/C,"dose: 150.0 micrograms/kg/injection, schedule: Q07DX002 (ip), vehicle: saline + alcohol","50 % of control, 65 % of control, 90 % of control"
same,T/C,"dose: 300.0 micrograms/kg/injection, schedule: Q07DX002 (ip), vehicle: saline + alcohol","61 % of control, 71 % of control, 100 % of control"
same,T/C,"dose: 1200.0 micrograms/kg/injection, schedule: Q07DX002 (ip), vehicle: saline + alcohol",27 % of control and 61 % of control
OCC1(CO)COC2(CCCCC2)N1,T/C,[9],65 % of control and 112 % of control
same,T/C,[7],122 % of control and 164 % of control
same,T/C,[10],71 % of control and 105 % of control
C[N+](C)(C)c1ncnc2c1ncn2C1CCCO1 (stereo not drawn),T/C,[11],35 % of control and 104 % of control
C1OC1CO[C@@H]1CO[C@H]2[C@@H]1OC[C@H]2OCC1CO1 (stereo partly drawn),T/C,"dose: 100.0 mg/kg/injection, schedule: Q07DX003 (ip), vehicle: saline",80 % of control and 119 % of control
same,T/C,"dose: 400.0 mg/kg/injection, schedule: Q07DX003 (ip), vehicle: saline",38 % of control and 74 % of control
C/C=C/c1cc2n(c1)C(=O)c1cc(OC3OC(C)C(NC)C(C)(O)C3O)c(C)c(O)c1NC2O (stereo not drawn),T/C,"dose: 4.0 micrograms/kg/injection, schedule: Q07DX002 (ip), vehicle: saline",60 % of control and 100 % of control
same,T/C,"dose: 8.0 micrograms/kg/injection, schedule: Q07DX002 (ip), vehicle: saline",88 % of control and 118 % of control
same,T/C,"dose: 16.0 micrograms/kg/injection, schedule: Q07DX002 (ip), vehicle: saline",73 % of control and 102 % of control
CC12CCC3C(CCC4CC(OC(=O)Cc5ccc(N(CCCl)CCCl)cc5)CCC43C)C1CCC(=O)N2 (stereo not drawn),T/C,"dose: 12.0 mg/kg/injection, schedule: Q07DX002 (ip), vehicle: saline with Tween-80",39 % of control and 79 % of control
CC1=C(/C=C/C(C)=C/C=C/C(C)=C/CO)C(C)(C)CCC1,T/C,"dose: 16.0 mg/kg/injection, schedule: Q07DX003 (ip), vehicle: saline with Tween-80",117 % of control and 200 % of control
same,T/C,"dose: 128.0 mg/kg/injection, schedule: Q07DX003 (ip), vehicle: saline with Tween-80",49 % of control and 85 % of control
COc1ccc(S(=O)(=O)N/N=C/C(=O)O)cc1,T/C,[12],101 % of control and 164 % of control
same,T/C,[4],77 % of control and 110 % of control
CCN(C)N=Nc1ccc(C(N)=O)cc1,T/C,[13],"22 % of control, 57 % of control, 74 % of control"
CSc1nc(=O)[nH]nc1SCc1ccccc1,T/C,"dose: 100.0 mg/kg/injection, schedule: Q07DX002 (ip), vehicle: Klucel (hydroxypropylcellulose) (HPC)",124 % of control and 162 % of control
same,T/C,[13],85 % of control and 167 % of control
same,T/C,"dose: 800.0 mg/kg/injection, schedule: Q07DX002 (ip), vehicle: Klucel (hydroxypropylcellulose) (HPC)",65 % of control and 176 % of control
CSCS(=O)C[C@H](CO)NC(=O)/C=C/c1c(C)[nH]c(=O)[nH]c1=O (stereo partly drawn),T/C,"dose: 0.5 mg/kg/injection, schedule: Q07DX002 (ip), vehicle: saline",53 % of control and 111 % of control
same,T/C,"dose: 1.0 mg/kg/injection, schedule: Q07DX002 (ip), vehicle: saline",75 % of control and 102 % of control
O=C(CCCN1CCC(O)(c2cccc(C(F)(F)F)c2)CC1)c1ccc(F)cc1,T/C,"dose: 3.12 mg/kg/injection, schedule: Q07DX003 (ip), vehicle: Klucel (hydroxypropylcellulose) (HPC)",33 % of control and 89 % of control

# Reference: PubChem BioAssay AID212 (DTP/NCI, 2004)
